In the BET-seq Pho4 binding data (Le et al. 2018):
The list shows a part of the results. The energies were worked out here from pooled read counts, against the library average; single values are noisy.

target: T1, Pho4 (S. cerevisiae) (UniProt P07270); test: relative binding free energy (BET-seq); higher = weaker binding; conditions: reference: library average
T1 sequence: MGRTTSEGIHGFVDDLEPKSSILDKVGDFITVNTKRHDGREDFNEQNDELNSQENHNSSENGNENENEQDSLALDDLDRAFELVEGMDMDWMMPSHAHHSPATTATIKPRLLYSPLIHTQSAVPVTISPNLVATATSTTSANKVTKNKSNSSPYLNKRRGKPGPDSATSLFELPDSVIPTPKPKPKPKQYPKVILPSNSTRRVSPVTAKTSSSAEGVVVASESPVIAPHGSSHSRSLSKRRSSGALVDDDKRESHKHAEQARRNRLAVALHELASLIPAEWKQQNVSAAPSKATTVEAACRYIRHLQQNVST

Sequence	relative binding free energy [kcal/mol]
TTTCGCACGTGAGAGG	0.24
TGAGCCACGTGCGTTT	-0.03
CTGGACACGTGTGTTT	0.07
TCCGTCACGTGGGTAT	0.06
AGGGTCACGTGAAATG	0.22
GAGTACACGTGGGGTA	-0.05
ACTTTCACGTGTGGTA	0.26
TGGATCACGTGTAGGA	0.17
GTTTCCACGTGAGGGC	0.29
ATAAGCACGTGGTTTG	-0.13
ACTCGCACGTGGTTGG	0.05
TCAGTCACGTGGGTCT	0.04
TTTAACACGTGCATTT	0.07
ACTGGCACGTGTGATT	-0.01
GATTGCACGTGGGAGA	0.19
TGGGGCACGTGCAGGT	-0.17
ATGTGCACGTGGCCTG	-0.19
GGAGTCACGTGAGCGG	0.26
GAGGTCACGTGGGGCA	0
TTATTCACGTGGGCTC	0.33
AATGGCACGTGCTGCG	-0.16
TGCTTCACGTGAGGAT	0.24
TGTTGCACGTGTGGCT	0.11

Sequence	relative binding free energy [kcal/mol]
AGTAGCACGTGTAAAT	0.04
GTAGGCACGTGAGTAA	0.19
GGACTCACGTGGGTTG	-0.01
TTGCTCACGTGTGGTC	0.29
TGAGGCACGTGGTGCA	-0.29
AGCGGCACGTGAGAGG	0.25
GTGGGCACGTGTGAGC	-0.01
TAGGTCACGTGACTTA	0.24
GTACGCACGTGGTTCG	0.06
TATTTCACGTGTGCTA	0.27
GTGTGCACGTGTGTCG	0.02
GTGAGCACGTGGCGGA	0.01
GGATACACGTGCGGGT	0.15
AAGTCCACGTGGGGGC	-0.01
AAGTCCACGTGTTGGT	0.05
TGATGCACGTGTCTGG	-0.15
GCGGGCACGTGGGCAT	-0.26
TTCATCACGTGTGCTT	0.26
TATCGCACGTGGTTTA	-0.07
TGAGTCACGTGAGCTA	0.38
TAATTCACGTGGTGGT	0.23
TTGGGCACGTGCTGAA	-0.28
TTGCTCACGTGTGTAA	0.3

Sequence	relative binding free energy [kcal/mol]
TCGTGCACGTGGCGTG	-0.09
TTCTTCACGTGAGGTC	0.38
TCTATCACGTGTATGG	0.15
TTTTTCACGTGTATTA	0.26
AGGAGCACGTGTATAT	-0.07
TTGGACACGTGGTAGT	0.03
TTTGACACGTGATTGA	0.07
AGTTTCACGTGTGGTG	0.4
GAAGGCACGTGGGAGC	-0.13
GGACGCACGTGTGGGT	0
GAACACACGTGGGGTG	0.01
TTTCGCACGTGGATTA	-0.02
GGCAGCACGTGTGGTC	0.1
GGATACACGTGTGCAT	0.17
GTGGTCACGTGGCAGA	0.09
TGTGACACGTGGGCTG	-0.15
TTGGACACGTGTCCTG	0.03
GAGTACACGTGGGTGT	-0.08
AGAAGCACGTGGGAGC	-0.08
AATGTCACGTGGATTT	0.25
CGACTCACGTGGGGTT	0.17
CTTAGCACGTGTGGGT	0.01
TGGGTCACGTGTACGT	0.05

Sequence	relative binding free energy [kcal/mol]
AGGAGCACGTGTTGAA	-0.06
TATCACACGTGGGATG	0
TGTAGCACGTGGCTGT	-0.2
GAGTTCACGTGGAGAG	0.23
GGTATCACGTGTGGGT	0.2
ATATACACGTGTGGTC	-0.04
AATTGCACGTGTATTA	0.11
TGGGTCACGTGCAAGA	0.04
ACGTGCACGTGATTTG	0.06
TGAGGCACGTGGTTTT	-0.05
ATTTACACGTGGTAAA	0.09
ATATACACGTGTGGGC	0.23
CGTGGCACGTGTCGGA	0.02
TGAGACACGTGTAAAT	0.21
GCTGGCACGTGTAGGT	0
TATTCCACGTGGGTTG	-0.02
CGGGTCACGTGAAAGA	0.41
TGGTTCACGTGTACGT	0.31
ATGTGCACGTGAAGCG	0.16
TGATTCACGTGTATCG	0.19
ACTGGCACGTGTGGAA	-0.1
CAATACACGTGGGGGG	0.02
GCGGGCACGTGTAGGA	-0.05

Sequence	relative binding free energy [kcal/mol]
GGGCACACGTGGGGGA	-0.03
CGCTGCACGTGAGTTG	0.1
GGGGGCACGTGCGAAT	0.05
CGTTCCACGTGTTGGT	0.08
GGCGGCACGTGATTAT	0.13
GCAGTCACGTGTGGGT	0.14
TAATACACGTGTTAGT	-0.15
ATTTGCACGTGGTTTT	0
GATCGCACGTGATTGT	0.25
GGGTACACGTGCACGT	0.17
AGGGCCACGTGAGTGA	0.02
TATGTCACGTGTTGTC	0.17
TTCTTCACGTGTTAAT	0.34
TGTGTCACGTGTTCGC	0.11
GGCGTCACGTGTGGTT	0.23
GGGGGCACGTGTGTCG	-0.15
AGGGGCACGTGACCTG	-0.01
CATTTCACGTGGAATG	0.32
AGCAGCACGTGGTAGG	-0.26
TTCGGCACGTGCGGGA	-0.26
GAGGGCACGTGTGAGT	-0.01
ATTCGCACGTGAAGTT	0.21
TTTCTCACGTGTTAAT	0.32
